Source: publication PMC4336329 (PLoS ONE, 2015)
In all, about 310,000 compounds went through this assay and about 2,200 (0.71%) showed an effect of 50% or more. The effect is printed as a negative number. The list shows a part of the results.

What follows are molecules tested against human ether-à-go-go-related gene (hERG) potassium channel (human, UniProt Q12809) (assay: primary screen, population patch clamp on CHO cells stably expressing hERG).
human ether-à-go-go-related gene (hERG) potassium channel, sequence (Q12809 whole entry, looked up): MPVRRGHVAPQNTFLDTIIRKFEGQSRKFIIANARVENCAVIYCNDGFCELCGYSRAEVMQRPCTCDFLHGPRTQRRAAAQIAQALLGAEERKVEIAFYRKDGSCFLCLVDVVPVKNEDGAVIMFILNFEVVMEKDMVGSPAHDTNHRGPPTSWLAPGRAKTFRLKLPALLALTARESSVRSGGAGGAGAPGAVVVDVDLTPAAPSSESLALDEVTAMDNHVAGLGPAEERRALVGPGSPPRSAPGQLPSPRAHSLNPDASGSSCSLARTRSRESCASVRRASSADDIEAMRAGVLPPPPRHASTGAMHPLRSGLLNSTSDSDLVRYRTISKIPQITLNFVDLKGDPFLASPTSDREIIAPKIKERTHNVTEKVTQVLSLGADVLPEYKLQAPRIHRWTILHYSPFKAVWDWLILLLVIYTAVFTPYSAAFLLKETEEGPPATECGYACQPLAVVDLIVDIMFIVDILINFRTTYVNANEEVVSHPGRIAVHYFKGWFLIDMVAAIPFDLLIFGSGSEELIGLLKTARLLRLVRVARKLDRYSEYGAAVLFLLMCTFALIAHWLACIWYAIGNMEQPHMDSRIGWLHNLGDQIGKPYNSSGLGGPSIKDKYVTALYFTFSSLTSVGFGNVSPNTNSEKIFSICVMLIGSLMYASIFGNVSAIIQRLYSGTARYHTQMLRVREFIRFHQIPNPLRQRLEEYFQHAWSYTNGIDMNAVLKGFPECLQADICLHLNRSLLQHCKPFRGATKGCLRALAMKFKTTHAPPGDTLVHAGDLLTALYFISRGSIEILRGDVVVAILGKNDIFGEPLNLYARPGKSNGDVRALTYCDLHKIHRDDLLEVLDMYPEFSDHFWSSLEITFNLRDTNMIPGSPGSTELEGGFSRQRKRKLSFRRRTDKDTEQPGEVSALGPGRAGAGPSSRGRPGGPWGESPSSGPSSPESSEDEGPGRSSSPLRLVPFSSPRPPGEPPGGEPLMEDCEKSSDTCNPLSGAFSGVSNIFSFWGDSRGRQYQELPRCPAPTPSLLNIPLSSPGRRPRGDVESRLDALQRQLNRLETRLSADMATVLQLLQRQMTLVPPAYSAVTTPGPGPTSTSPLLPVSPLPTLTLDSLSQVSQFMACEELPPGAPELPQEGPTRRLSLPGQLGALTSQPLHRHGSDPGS

Row | SMILES | hERG current change (%, negative = inhibition) at 1uM [%]
1 | CCN(CC)C1CCN(C(=O)c2cc(COc3ccc(F)cc3Cl)on2)C1 (stereo not drawn) | -21.2
2 | CCOc1ccccc1OCC(=O)N/N=C(\C)Cc1ccc(OC)cc1 | 6.38
3 | CC(=O)N/C(=C/c1ccc([N+](=O)[O-])cc1)C(=O)O | 13.2
4 | C=CCN(C(=O)CSc1nc2c(sc3ccccc32)c(=O)n1CCN(CC)CC)c1ccccc1 | 8.17
5 | CCCOc1ccc(/C=C2/C(=O)ON=C2C)cc1OCC | 13.9
6 | COc1cc(C(=O)/C=C/c2cccnc2)ccc1O | 12.1
7 | Cc1cc(C)c(OCC(=O)NCC2CCCO2)c(C)c1 (stereo not drawn) | 8.98
8 | CC(C)(C)NC(=O)NC(=O)CN1CCN(c2cccc(Cl)c2)CC1 | 7.96
9 | COc1ccc(S(=O)(=O)Nc2ccc(NC(C)=O)cc2)cc1[N+](=O)[O-] | 13.5
10 | Nc1ccc(C(=O)NC23CC4CC(CC(C4)C2)C3)cc1 | 17.1
11 | COc1ccccc1N1CCN(C(=O)c2coc(=O)c(Br)c2)CC1 | 23.1
12 | CC(C)(C)OC(=O)N1CCN(CCNC(=O)c2ccccc2)CC1 | 17.2
13 | Cc1ccc(-c2nc3cccnc3s2)cc1NS(=O)(=O)c1cccs1 | 4.29
14 | N=c1c2c(-c3ccccc3)c(-c3ccccc3)n(Cc3ccco3)c2ncn1CCCO | -34.5
15 | CC(NC(=S)Nc1ccc(OC(F)F)c(Cl)c1)C(C)(C)C (stereo not drawn) | 16.7
16 | CC(=O)Nc1ccc(NC(=O)CSc2nncn2C)cc1 | 11.5
17 | CC(C(=O)N1CCCC1)N1CCN(S(=O)(=O)c2ccc(C(C)(C)C)cc2)CC1 (stereo not drawn) | -8.44
18 | Cc1nnc(C)c2c(C)n(Cc3ccc4c(c3)OCO4)c(C)c12 | -35.1
19 | C=CC[C@]12CCc3ccccc3C1N(c1ccc(C(=O)OCC)cc1)C2=O (stereo partly drawn) | 10.7
20 | CC(CNC(=O)c1cccs1)c1ccc([N+](=O)[O-])cc1 (stereo not drawn) | 5.72
21 | O=C(O)/C=C\C(=O)O | 14.4
22 | COc1ccc(NC(=S)N2CCc3cc(OC)c(OC)cc3C2)cc1 | 12.6
23 | CN(Cc1cccnc1)C(=O)c1cc(COc2ccc3c(c2)CCCC3)on1 | 8.03

Row | SMILES | hERG current change (%, negative = inhibition) at 1uM [%]
24 | Cc1ccc(NC(=O)CSCc2nc3c(nnn3Cc3ccc(F)cc3)c(=O)[nH]2)c(C)c1 | 5.13
25 | CCOc1ccccc1N(CC(=O)Nc1ccc(OC)cc1OC)S(=O)(=O)c1ccccc1 | 22.1
26 | COc1ccc(OCC(O)CNS(=O)(=O)c2cccc(Cl)c2)cc1 (stereo not drawn) | 12.1
27 | COc1ccccc1C(C)NC(=O)Cc1ccsc1 (stereo not drawn) | 22.8
28 | CC/C(=N\NC(=O)c1ccc2c(c1)OCO2)C12CC3CC(CC(C3)C1)C2 | 13.2
29 | O=C(CN1CCN(Cc2ccccc2)CC1)NCc1ccccc1Cl | -5.7
30 | Nc1cc(-c2ccc(Br)cc2)nn1S(=O)(=O)c1ccccc1 | 11.2
31 | O=C(Nc1ccccc1Cc1ccccc1)c1ccncc1 | 12.4
32 | COc1ccc(C2/C(=C(/O)c3ccc(C)cc3)C(=O)C(=O)N2CC2CCCO2)cc1OC (stereo not drawn) | 23.5
33 | CCc1ccc(S(=O)(=O)/N=C2\C=C(Nc3ccc(O)cc3)C(=O)c3ccccc32)cc1 | 13.8
34 | COc1ccc(OC)c(S(=O)(=O)N2CCCC2C(=O)NC(C)c2ccccc2)c1 (stereo not drawn) | 11.9
35 | Cc1ccccc1NS(=O)(=O)c1ccc(F)cc1 | 8.41
36 | Cc1cc(C)n(C(=O)C2CCCN2S(=O)(=O)c2ccc(Cl)cc2)n1 (stereo not drawn) | 6.72
37 | OCC1(CCc2ccccc2)CCN(Cc2c(F)ccc(F)c2F)CC1 | 7.97
38 | Clc1ccc(C[n+]2cc(-c3ccccc3)n3c2CCCCC3)c(Cl)c1.[Br-] | -24.7
39 | O=C1NC(=O)N(c2ccccc2)C(=O)/C1=C/C=C/c1ccco1 | 1.05
40 | CCCC(=O)Nc1ccc(-c2nc3cc(C)c(C)cc3o2)c(O)c1 | 12.7
41 | CC(C)(C)OC(=O)NCCNC(=O)c1cccs1 | 8.43
42 | O=C(Nc1ccncc1)C1CCN(S(=O)(=O)c2ccc(Cl)cc2)CC1 | 0.0643
43 | COc1ccc(CCNC(=O)C(=O)N/N=C/c2cccs2)cc1OC | 15.7
44 | COc1ccccc1Oc1cc(F)nc(N)n1 | 8.71
45 | O=C(O)CN1C(=O)SC(Nc2ccc(Cl)cc2)C1=O (stereo not drawn) | 9.62
46 | O=[N+]([O-])c1cc(C(F)(F)F)ccc1NCCc1c[nH]c2ccc(O)cc12 | 11.1

Row | SMILES | hERG current change (%, negative = inhibition) at 1uM [%]
47 | O=C(O)C1C2CCC(O2)C1C(=O)Nc1cnn(Cc2ccccc2)c1 (stereo not drawn) | -17.3
48 | COc1ccc(OCC(=O)Nc2ccc(S(=O)(=O)N3CCCCCC3)cc2)cc1 | 4.27
49 | O=C(NC(NCc1cccnc1)C(Cl)(Cl)Cl)c1cccc2ccccc12 (stereo not drawn) | 4.91
50 | Cc1ccc2c(c1)C(=O)CC(O)(C(F)F)O2 (stereo not drawn) | 16.9
51 | Cc1cc(N2CCOCC2)nc2ccc(NC(=O)CCC(=O)N3CCCCC3)cc12 | -4.2
52 | COc1ccccc1C(=O)C1CCCN(C(=O)CN2CCCCC2=O)C1 (stereo not drawn) | 12.6
53 | CC1=C(C(=O)NCc2ccccc2)C(c2cc(Br)cc(Br)c2OC(C)C)NC(=O)N1 (stereo not drawn) | -7.48
54 | CC(=O)Nc1ccc(S(=O)(=O)NCCS(=O)(=O)N2CCN(c3ccccc3)CC2)cc1 | 3.85
55 | CCN(CC)C(=O)Cc1c(O)c2ccccc2[nH]c1=O | 9.05
56 | COc1ccc(-c2cn3c4c(sc3n2)CCCC4)cc1 | -7.4
57 | O=C(Nc1ccc(F)cc1)c1cc(S(=O)(=O)N2CCOCC2)cs1 | 5.73
58 | Cc1cccc(OCC(=O)Nc2cc(NC(=O)COc3cccc(C)c3)cc(C(=O)O)c2)c1 | 17
59 | CN(C)/C=C/C(=O)c1ccc2noc(-c3cccc(F)c3)c2c1 | 7.15
60 | c1ccc(-c2cnnc(SCc3cn4cccnc4n3)n2)cc1 | 5.31
61 | CC1=C(C(=O)OCC2CCCO2)C(c2ccc(O)cc2)NC(=O)N1 (stereo not drawn) | -5.18
62 | CCn1c(Cc2ccccc2)nnc1SCC(=O)N1CCCCC1 | 11.7
63 | CCOC(=O)c1c(/N=C/c2cccc([N+](=O)[O-])c2O)sc(C)c1C | 10.6
64 | COc1cc(CN2CC(C)CC(C)C2)cc([N+](=O)[O-])c1O (stereo not drawn) | 13.5
65 | CCC(C)C1C(C#N)=C(N)Oc2n[nH]c(-c3ccccc3)c21 (stereo not drawn) | 9.06
66 | Cc1cc(Nc2ccc(Cl)cc2)n(-c2cccc(Cl)c2)n1 | -3.54
67 | Cc1ccc(S(=O)(=O)n2cccc2C)cc1 | 15
68 | O=C(NC1CCN(Cc2ccccc2)CC1)C1CCCN(S(=O)(=O)c2cccc3nonc23)C1 (stereo not drawn) | -13.5
69 | COc1cc(N2CCOCC2)ncn1 | 5.39

Row | SMILES | hERG current change (%, negative = inhibition) at 1uM [%]
70 | O=S(=O)(c1ccc(Oc2ccccc2)cc1)N1CCOCC1 | 1.61
71 | CCOC(=O)c1ccc(NC(=O)CSc2nnc(-c3cccs3)n2CC)cc1 | 6.82
72 | Cc1ccc(C)c(NC(=O)CCN2C(=O)C3CC=CCC3C2=O)c1 (stereo not drawn) | 8.68
73 | CC(=O)Nc1ccc(S(=O)(=O)N2CCN(C(=O)c3ncoc3-c3ccc(F)cc3)CC2)cc1 | -6.02
74 | O=C(O)c1cc(NC(=O)c2cccc(C(=O)Nc3cc(C(=O)O)cc(C(=O)O)c3)c2)cc(C(=O)O)c1 | 14.1
75 | O=C(NC1=NCCS1)c1cccs1 | 4.23
76 | C=CCNc1ccc(C(=O)O)cc1 | 0.797
77 | COc1ccc(-c2c(-c3ccc(OCC(=O)NN)cc3O)n[nH]c2C)cc1 | 10.1
78 | CN(Cc1ccon1)C(=O)CC1C(=O)NCCN1Cc1cccc(Oc2ccccc2)c1 (stereo not drawn) | -0.609
79 | COc1ccc(Cl)cc1NC(=O)c1sc2nc(C)nc(N3CCOCC3)c2c1C | 5.16
80 | COc1cccc(C(=O)C2CCCN(Cc3ccc(F)cc3)C2)c1 (stereo not drawn) | 4.29
81 | O=C(Nc1ccon1)c1cnc2sccn2c1=O | 10.9
82 | Cc1ccnc(SCC(=O)N2CCN(c3ccccc3)CC2)n1 | -10.2
83 | CC(C)CN1CCC(=O)N(CCO)CC1 | 1.57
84 | Cc1noc(C)c1C(=O)OCC(=O)Nc1ccccc1C(=O)NC(C)c1ccccc1 (stereo not drawn) | 9.01
85 | Nc1ccccc1C(=O)NNC1=C(C(=O)C(F)(F)F)CCC1 | 11.4
86 | COc1cccc(CN(C)C(=O)c2ccc(C)c(S(=O)(=O)N3CCCCC3)c2)c1 | 5.78
87 | CC12CCC(=O)N1C(C(=O)N1CCN(S(=O)(=O)c3ccc(F)c(F)c3)CC1)CS2 (stereo not drawn) | -18.5
88 | COc1cccc(N2CC(C(=O)Nc3nnc(SCCC4OCCO4)s3)CC2=O)c1 (stereo not drawn) | 7.66
89 | CCOC(=O)C1=C(c2ccccc2)Nc2ncnn2C1c1ccc(C(=O)O)cc1 (stereo not drawn) | -1.17
90 | CC(C)(C)C(=O)NC(=S)Nc1cccc(C(=O)O)c1 | -4.2
